Measured values published in US20180118841A1 (published 2018).

How the values were obtained:
[1] = target: T1, CTLA-4 (BMS, Orencia) (human); assay: cell-based or functional assay
T1 chain: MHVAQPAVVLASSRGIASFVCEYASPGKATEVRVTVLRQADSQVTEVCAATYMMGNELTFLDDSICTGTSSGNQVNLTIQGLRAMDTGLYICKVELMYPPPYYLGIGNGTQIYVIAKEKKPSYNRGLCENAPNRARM

[2] = target: T1, CTLA-4 (BMS, Orencia); assay: cell-based or functional assay

Mean IL-2 level (pg/ml) induced at 1.5 nM [1]: 2580 pg/mL | Fold change in IL-2 level induced by bispecific molecule compared to the corresponding combination of the monospecific molecules at 1.5 nM [2]: 4.7 fold
B1: bispecific molecule 1170/1141 (as printed in Tables 10.1 and 10.2) (bispecific antibody)
heavy: EVQLLESGGGLVQPGGSLRLSCAASGFTFGGYYMSWVRQAPGKGLEWVSYIPGSGGSTYYADSVKGRFTISRDNSKNTLYLQMNSLRAEDTAVYYCARYDYYWMDYWGQGTLVTVSS[… human IgG1 constant region …]
light: not shown
